The text below walks through data of PubChem BioAssay AID434955 (Southern Research Specialized Biocontainment Screening …, 2010).

The other results are listed elsewhere or left out. The main result of the screen is listed elsewhere. These columns were measured beside it and carry no call. Compounds called inactive in the main read-out are mostly missing here.

The nature of the assay: beta-lactam sensitization of Mtb H37Rv, H37Rv (AID 434955).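 Note: growth measured after seven days incubation then overnight dye step; 0% = bacteria only wells and 100% = bacteria with antibiotic.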 The following applies: M. tuberculosis H37Rv growth with meropenem, percent inhibition; measured here: primary screen without meropenem; at 25 µM.
Broadly, the inhibition is the relative decrease from the control value, in per cent. As for `COc1ccc(NS(=O)(=O)c2coc(C(N)=O)c2)cc1Cl`, the inhibition is 0.12%.
On to `COC(=O)c1ccc(OCC2NCCc3cc(OC)c(OC)cc32)cc1` (configuration not stated), for which the inhibition turned out to be 3.13%.
On to `CC1(C)Cc2ccccc2-c2nnc(-c3cccnc3)n21`, for which the inhibition was -6.33%.
On to `CN(Cc1nccs1)C(=O)c1ccc(OC2CCN(CCc3ccccc3)CC2)cc1`, for which the inhibition was -1.19%.
As to `COc1cc(OC)cc(-c2cc3ccc(OC)cc3cn2)c1`, the inhibition was 48.7%.
For `Cc1ccc(C(=O)N2CCOCC2)cc1S(=O)(=O)N1CCOCC1`, the inhibition was 3.69%.
Turning to `Cc1ccc(NC(=O)/C=C\C(=O)O)c([N+](=O)[O-])c1`, the inhibition turned out to be 5.94%.
Take `COc1ccc(N(C)C(=O)c2cc3c(s2)-c2ccccc2OC3)c(OC)c1`: the inhibition is -2.89%.
Take `CC(C)(C)c1nn(-c2ccccc2)c2[nH]c(=O)c(CNc3ccc4c(c3)OCCO4)cc12`: the inhibition is 52.8%.
On to `Cc1nc2sc3c(c2c2nnc(SCC(=O)NCc4ccco4)n12)CCCC3`, for which the inhibition turned out to be 25%.
`CCn1c(-c2ccc(-c3ccccc3)cc2)c[nH]c1=S`: the inhibition worked out at 32.3%.
In the case of `O=C(CSc1ccc2nnc(-c3ccccn3)n2n1)Nc1ccc(F)cc1F` it was 3.57%.
In the case of `CCc1nc(C(N)=O)c2[nH]c(=O)n(-c3ccc(OC)cc3OC)c2n1`, the inhibition was -4.67%.
Regarding `COc1ccc(C2/C(=C(\O)c3ccc4c(c3)CC(C)O4)C(=O)C(=O)N2Cc2cccnc2)c(OC)c1` (configuration not stated), the inhibition is -3.11%.
As for `COc1ccc(N(C)S(=O)(=O)c2c(C)[nH]c(=O)[nH]c2=O)cc1`, the inhibition was 1.3%.
Turning to `Cc1c(OCC(=O)NCc2cccnc2)ccc2c3c(c(=O)oc12)CCC3`, the inhibition is 1%.
In the case of `Cc1ccc(S(=O)(=O)N2CCOCC2)cc1C(=O)NC1CCCCCC1` it was -1.88%.
Take `CC(C)=C1C2CCC1C(C(=O)NCc1ccccc1)C2C(=O)O` (configuration not stated): the inhibition stood at 4.87%.
In the case of `CCOc1ccc2[nH]c(=O)c(CN(Cc3ccccc3OC)C(=O)c3ccccc3)cc2c1` it was -2.14%; in that of `O=C(NCCCN=C1NS(=O)(=O)c2ccccc21)c1ccncc1`, -0.54%; in that of `Fc1ccccc1OCCSc1nnnn1-c1ccccc1`, 2.68%.
For the compound `Cc1cc(C(=O)NCC2CCCO2)n(-c2ccccc2)n1` (configuration not stated), the inhibition was -2.35%.
In the case of `CC(=NC1CCCC1)c1c(C)[nH]n(-c2nc3ccccc3s2)c1=O` it was -1.16%; in that of `O=c1[nH]c(=S)n(C2CC2)c(O)c1C=Nc1cccc(C(F)(F)F)c1`, -1.12%.
With `C/C(=N\OCC(=O)Nc1nc2ccccc2s1)c1ccccc1`, the inhibition amounted to 43.2%.
Regarding `CCOC(=O)c1sc(NC(=O)c2sc(C)nc2C)nc1C`, the inhibition is -6.27%.
In the case of `O=C(C[n+]1ccc(-c2ccccc2)cc1)Nc1ccc([N+](=O)[O-])cc1` it was -3.07%; in that of `CCOc1ccccc1C(=O)Nc1cccc(-c2ccc3nncn3n2)c1`, 19%; in that of `CC(C)(C)c1cc(NC(=O)COC(=O)c2nccnc2N)n(-c2ccccc2)n1`, 6.57%.
Take `O=C(COc1ccccc1)Nc1nnc(-c2ccc(F)cc2)o1`: the inhibition turned out to be 4.46%.
In the case of `O=C(Nc1cccc(C(=O)NC2CCCC2)c1)c1ccccc1` it was -1.79%; in that of `O=C(NNS(=O)(=O)c1ccc(Cl)cc1)c1cnn(-c2ccccc2)c1-n1cccc1`, -0.33%; in that of `Cc1ccc(SCc2c(-c3ccccc3)nn(C)c2Cl)cc1`, 47.1%.
With `Cc1ccc(N(O)C(=O)NCCCCNC(=O)N(O)c2ccc(C)cc2)cc1`, the inhibition worked out at 3.07%.
With `Cn1c(C(=O)Nc2ccc3c(c2)OCO3)cc2c(=O)n(C)c3ccccc3c21`, the inhibition is -4.06%.
On to `Cc1nn(-c2ccccc2)c(N2CCCC2)c1/C=C1\N=C(c2ccc(F)cc2)OC1=O`, for which the inhibition worked out at 21.9%.
Take `Cc1nc(S/C(=C\c2ccc(OCc3ccccc3Cl)cc2)C(=O)O)n[nH]1`: the inhibition was found to be 20.4%.
For the compound `O=C(c1cnn2c(C(F)(F)F)cc(-c3ccc(F)cc3)nc12)N1CCc2ccccc2C1`, the inhibition amounted to 11.5%.
In the case of `COc1ccc2c(c1OC)C(=O)N(c1ccc3c(c1)CCC3)C2=O` it was -3.24%.
For `CCc1cc(=O)[nH]c(SCCc2ccccc2)n1` the value was -2.59%.
For `CCCCCCn1nc(C(=O)N(CC(C)C)c2c(N)n(CCCC)c(=O)[nH]c2=O)c2ccccc2c1=O`, the inhibition stood at 20.6%.
With `O=C(Nc1cccc(Cl)c1N1CCOCC1)c1ccc([N+](=O)[O-])o1`, the inhibition is 6.65%.
Turning to `CCc1nn(CC(=O)NCCCN2CCN(C)CC2)c(=O)c2cc3sc(C)cc3n12`, the inhibition worked out at 3.02%.
For `CCNc1oc(-c2ccccc2F)nc1S(=O)(=O)c1ccccc1`, the inhibition was determined as 3.23%.
`Cc1cc(N2CCC(C(=O)N3CCN(c4cccc(C)c4C)CC3)CC2)n2ncnc2n1`: the inhibition is -0.67%.
With `O=C(Nc1cc(C(F)(F)F)ccc1N1CCOCC1)C1=NN(c2ccccc2)C(=O)CC1`, the inhibition was -0.13%.
With `C=CCNCCCOc1ccc(Cl)cc1C(C)(C)C`, the inhibition is 31.5%.
Consider `Cc1cccc(CN2CCC(n3nccc3NC(=O)c3ccccc3C)CC2)n1`, for which the inhibition is -3.3%.
`Cn1c(=O)c2c(nc(SCCCC#N)n2Cc2ccccc2F)n(C)c1=O`: the inhibition was -7.83%.
In the case of `COc1ccc(OC)c(C2CC(c3c(-c4ccccc4)c4cc(Cl)ccc4[nH]c3=O)=NN2S(C)(=O)=O)c1` (configuration not stated) it was 44.4%; in that of `CN1CCN(S(=O)(=O)c2ccc(Br)s2)CC1`, -2.75%; in that of `COc1ccc(CCNC(=O)c2cccc(NC3=NC4CS(=O)(=O)CC4S3)c2)c(OC)c1` (configuration not stated), -7.32%.
Regarding `COc1ccc(NC(=O)c2cc(C(C)C)on2)cc1OC`, the inhibition is -1.96%.
For the compound `O=C(c1ccoc1)N1CCCC(N2CCN(c3cccc(C(F)(F)F)c3)CC2)C1` (configuration not stated), the inhibition turned out to be 8.33%.
For `Cc1[nH]c2ccccc2c1Cc1nnc(SCC(N)=O)o1` the value was -7.55%; for `CCOC(=O)c1c(C)n(-c2ccccc2)c2ccc(OCCN(C)C)cc12`, 35.8%; for `CC1(C(=O)N/N=C/c2cc3c(cc2Br)OCO3)CC1(Br)Br` (configuration not stated), 7.12%.
Take `CCOC(=O)Cc1csc(NC(=O)c2csc3c2CCCC3)n1`: the inhibition worked out at 1.38%.
Turning to `Cc1cccc(/C=N/NC(=O)c2cc(C3CC3)nc3ccccc23)n1`, the inhibition came to 5.21%.
For the compound `COc1ccc(CN2CCNC(=O)C2CC(=O)NCC2CCOCC2)c(C)c1C` (configuration not stated), the inhibition is -11.2%.
As for `COc1ccc(C(C)=O)cc1CSc1nc2ccccc2c(=O)n1-c1cccc(C)c1`, the inhibition was -2.49%.
In the case of `Cc1ncc(CCl)c2c1OC(C)(C)OC2` it was 43.1%; in that of `COCCOC(=O)C1=C(N)Oc2c(oc(CO)cc2=O)C1c1c(F)cccc1Cl` (configuration not stated), -8.34%; in that of `CCCCOc1ccc(C(=O)Oc2cccnc2)cc1`, 50%.
On to `O=C(Nc1cc2c(cc1Br)OCCCO2)c1cccnc1`, for which the inhibition was -0.32%.
For `Cc1c(C(=O)NCCC2=CCCCC2)sc2ncnc(N3CCCCC3C)c12` (configuration not stated) the value was 30.9%; for `Cc1cc(C)c2nc(-c3ccncc3)cc(C(=O)N3CCN(Cc4ccccc4Cl)CC3)c2c1`, 96.3%.
For the compound `O=C1CCCc2sc3c(c2N1)CCCCC3`, the inhibition worked out at 9.94%.
In the case of `O=C(NCCCn1ccnc1)Nc1ccc(Cl)cc1` it was 0.26%; in that of `CCCC(=O)Nc1c(C)n[nH]c1C`, -7.11%.
For `CC1Cc2ccccc2N1C(=O)COC(=O)Cn1cnc2ccccc2c1=O` (configuration not stated), the inhibition was determined as 4.7%.
Consider `COc1cccc(-n2c(=O)c3sccc3n(CC(=O)NCC3CCCO3)c2=O)c1` (configuration not stated), for which the inhibition is -1.2%.
In the case of `CCc1ccc(CNC(=O)c2ccc(OC)c(OC3CCN(C(C)C)CC3)c2)nc1` it was 1.96%; in that of `CC(/C=C/c1ccco1)=N\NC(=O)c1cc(C)[nH]n1`, -10.3%; in that of `O=C(Nc1ccc(F)cc1)c1cccc(N2C(=O)C3C4C=CC(C5CC45)C3C2=O)c1` (configuration not stated), -11.6%.
Take `O=C(CCC(=O)Nc1ccccc1)NNC(=O)c1ccco1`: the inhibition worked out at 24.8%.
For the compound `C/C(=N\O)c1c(C)c2ccccc2n1C`, the inhibition was -8.32%.
For `Cc1ccc(CNC(=O)CCc2nnc3ccc(NCCCN4CCCC4=O)nn23)cc1` the value was -1.3%.
`O=C(NN1C(=O)C2C3C=CC(C3)C2C1=O)c1ccncc1` (configuration not stated): the inhibition amounted to 14.3%.
For `Cc1cc(NC(=O)CN2CCN(c3ccccc3O)CC2)no1` the value was -5.52%; for `Cn1c(=O)oc2cc(S(=O)(=O)Nc3ccc(F)cc3)ccc21`, -2.73%.
As for `CCCCNc1nc2ccccc2nc1NS(=O)(=O)c1ccc(F)cc1`, the inhibition is -4.75%.
Regarding `Cc1cccc(C)c1NC(=O)CS(=O)CC(=O)NC1CCN(Cc2ccccc2)CC1` (configuration not stated), the inhibition is -3.98%.
`Nc1nc(NCC(=O)O)nc(N2CCCCCC2)c1[N+](=O)[O-]`: the inhibition was 4.12%.
For the compound `CC(C)(C)[C@@H]1C=C(C(=O)Nc2ccccc2)O[C@H](OCc2ccc(CO)cc2)C1`, the inhibition was determined as 13.1%.
On to `CSc1nc(NS(=O)(=O)c2cc(C)c(Cl)cc2Cl)nn1C`, for which the inhibition is -6.12%.
As for `COc1ccc(CCN2CC(C(=O)NCc3cnn(C(C)C)c3)CCC2=O)cc1` (configuration not stated), the inhibition stood at 0.14%.
As for `Cc1cc(NC(=O)Cn2c(=O)c3c(ncn3CCC(C)C)n(Cc3ccccc3)c2=O)no1`, the inhibition was -1.09%.
In the case of `Cc1ccc(C(=O)N2CCCC(Nc3ccc(F)cc3)C2)cc1C` (configuration not stated), the inhibition was determined as 11%.
In the case of `NC(=S)NN=C1c2cc(S(=O)(=O)N3CCOCC3)ccc2-c2ccc(S(=O)(=O)N3CCOCC3)cc21` it was -4.51%; in that of `Cc1ccsc1C(=O)N1CCCC(N(C)Cc2ccccc2)C1` (configuration not stated), -8.2%; in that of `COc1ccc(NC(=O)c2cc(Br)ccc2Cl)c(OC)c1`, 42.9%.
On to `O=C(NC(=S)NCCc1ccccc1)c1cccc(Cl)c1`, for which the inhibition came to 13.8%.
With `Clc1ccc(Cn2cc(/C=N/n3cnnc3)c3ccccc32)cc1`, the inhibition stood at 23.6%.
In the case of `Cc1ccc(C(=O)C[n+]2cc(-c3ccccc3)n3c2CCCCC3)cc1` it was 2.54%; in that of `COc1cc2[nH]c(=O)n(CCC(=O)N3CCN(c4cc(Cl)ccc4C)CC3)c(=O)c2cc1OC`, -5.44%.
In the case of `CC(=O)c1cccc(CN2CCC(n3nccc3NC(=O)CCc3ccccc3)CC2)c1`, the inhibition was -0.03%.
As to `CC(Cc1cnccn1)NCc1c(C(=O)N2CCCCCCC2)nc2ccc(Cl)cn12` (configuration not stated), the inhibition is -7.4%.
In the case of `c1ccc2c(c1)OCC(c1nn3cnnc3s1)O2` (configuration not stated) it was -5.47%; in that of `Cn1c(/C=C/c2ccc(Cl)cc2)nc2ccccc2c1=O`, 37.4%.
As to `Cc1ccc(-n2ncc3c(=O)n(CC#N)cnc32)cc1C`, the inhibition was 29.8%.
For `Cc1oc2ccc(OC(C(=O)O)c3ccccc3)cc2c1C(=O)O` (configuration not stated) the value was 11.1%; for `CC1CCCC(N2CCN(C(=O)c3ccc(F)cc3)CC2)C1` (configuration not stated), -2.5%; for `CCOc1ccc(C(=O)NCC(=O)NCCOc2ccc(C)cc2)cc1`, 5.54%.
With `CCOC(=O)c1[nH]c2ccc(F)cc2c1NC(=O)CN1CCc2cc(OC)c(OC)cc2C1`, the inhibition was found to be 11.2%.
For `Cc1cc(C)nc(SCC(=O)Nc2ccccc2[N+](=O)[O-])n1` the value was 54.2%; for `CCOc1cc(S(=O)(=O)NCc2ccc(OC)cc2)c(OCC)cc1-n1cnnn1`, 2.6%.
